# Laboratory results: PubChem BioAssay AID1030 (National Center for Advancing Translational Sciences (NCATS), 2008)
# Hit rate of the full screen: of about 220,000 compounds, about 16,000 (7.3%) were called active. The inconclusive results got no clear call from the source; some entries with a clear call stand among them for comparison. Calls come from the whole dose curve; as a rule, active = well fitted inhibition curve with a large enough effect (not every such curve was filed as active); inconclusive = small, poorly fitted or top-dose-only effect, or another doubt; inactive = no such curve, though single readings can be large or run the other way. No potency is given beside an inconclusive call; the fits are too rough.
# Molecular target: Aldehyde dehydrogenase 1A1 (Homo sapiens) (UniProt P00352)
# Assay: qHTS Assay for Inhibitors of Aldehyde Dehydrogenase 1 (ALDH1A1);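 for activity, negative = inhibition: plate controls were no enzyme wells and a reference inhibitor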
# Details: Purified ALDH1A1, NADH fluorescence, propionaldehyde substrate; series mostly up to 75.3 µM; activity, negative = inhibition: at the top concentration
# Potency is the fitted concentration of half-maximal effect; tags give direction and shape of the fitted curve.
# UniProt P00352, sequence (P00352 whole entry, looked up): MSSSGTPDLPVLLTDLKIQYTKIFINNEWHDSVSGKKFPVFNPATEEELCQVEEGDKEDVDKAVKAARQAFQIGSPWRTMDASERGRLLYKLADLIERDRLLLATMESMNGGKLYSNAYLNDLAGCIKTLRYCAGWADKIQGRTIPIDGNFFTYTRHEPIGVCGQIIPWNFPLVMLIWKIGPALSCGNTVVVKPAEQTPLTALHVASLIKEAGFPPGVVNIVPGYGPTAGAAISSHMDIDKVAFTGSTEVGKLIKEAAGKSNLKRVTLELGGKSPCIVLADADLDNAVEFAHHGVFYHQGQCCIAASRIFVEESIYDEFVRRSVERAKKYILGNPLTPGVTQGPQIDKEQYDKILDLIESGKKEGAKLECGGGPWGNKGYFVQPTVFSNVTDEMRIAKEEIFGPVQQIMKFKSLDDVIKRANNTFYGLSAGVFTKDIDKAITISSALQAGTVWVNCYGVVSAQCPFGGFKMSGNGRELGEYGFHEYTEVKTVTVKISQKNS
Compound,Potency,"activity, negative = inhibition"
CCn1nnnc1-c1ccc(OC)c(S(=O)(=O)Nc2ccc(C)c(C)c2)c1,active: 7.08 µM,–
Cc1ccc(OC(=O)c2ccc(S(=O)(=O)N(C)C)cc2)c(-n2nc3ccccc3n2)c1,"inconclusive [inhibitor, single point]",–
FC(F)(F)c1cc(Oc2ccccc2)ncc1-c1nnc(-c2ccccc2Cl)o1,"inconclusive [inhibitor, partial curve]",–
CCn1c(-c2ccccc2Cl)nn(CC(=O)Nc2cc(Cl)ccc2Cl)c1=S,"inconclusive [inhibitor, single point]",–
Cn1c2ccccc2c2n[nH]c(=O)nc21,–,inactive: -2.15%
COc1ccc(C)cc1S(=O)(=O)Nc1cc(Cl)ccc1Cl,"inconclusive [inhibitor, single point]",–
COc1ccc(-c2nc(C#N)c(NCCCN(C)C)o2)cc1OC,"inconclusive [inhibitor, partial curve]",–
O=C(Cc1ccccc1)NCC(=O)OCC(=O)c1ccccc1Cl,"inconclusive [inhibitor, single point]",–
O=C(Nc1ccccc1OC(F)F)c1cc2c(s1)CCC2,"inconclusive [inhibitor, single point]",–
N#Cc1ccccc1NCc1ccccc1,–,inactive: -8.76%
CCOC(=O)N/N=C\C=C\c1ccc2c(c1)OCO2,–,inactive: -0.995%
Cc1cc(C(=O)COC(=O)c2cccn2C)c(C)n1Cc1ccco1,active: 25.1 µM,–
O=C(Nc1ccc2c(c1)CCC2)C1CCN(c2c3c(nc4ncnn24)CCC3)CC1,active: 15.8 µM,–
Cc1cc(N2CCCCC2)n2ncc(-c3ccccc3)c2n1,"inconclusive [inhibitor, single point]",–
Cc1ccc(/C=N/NC(=O)c2ccco2)s1,–,inactive: 8.62%
COC(=O)c1ccsc1NC(=O)CSc1nnnn1-c1ccccc1SC,active: 0.126 µM,–
O=C(CSc1nc2c(sc3ccccc32)c(=O)n1-c1ccccc1)NCc1ccco1,active: 11.2 µM,–
Cc1ccc(-n2c(CCC(=O)O)ccc2-c2cccs2)cc1C,"inconclusive [inhibitor, partial curve]",–
Cc1ccccc1-c1nc(C#N)c(NCc2ccco2)o1,"inconclusive [inhibitor, partial curve]",–
CCn1nnc(-c2ccccc2NC(=O)c2ccc(-n3cnnn3)cc2)n1,"inconclusive [inhibitor, single point]",–
Cc1ccc(S(=O)(=O)N(C)Cc2cc3ccccc3[nH]c2=O)cc1,–,inactive: 2.51%
CN(CCC#N)C(=O)COC(=O)c1cc(Cl)cc(Cl)c1N,"inconclusive [inhibitor, partial curve]",–
C=CCNC(=O)CSc1cc([N+](=O)[O-])cc(S(=O)(=O)Cc2ccccc2)c1,active: 4.47 µM,–
CC1=C(C#N)C(=O)N(C2CCS(=O)(=O)C2)C(=O)/C1=C\c1ccc(C)o1 (stereo not given),"inconclusive [inhibitor, full curve]",–
Cc1cc(C(=O)N/N=C2\CC(=O)CC(C)(C)C2)c(C)n1-c1ccc(F)cc1,active: 28.2 µM,–

Compound,Potency,"activity, negative = inhibition"
O=C(NCc1ccc2c(c1)OCO2)c1cc(-c2ccccn2)nc2ccccc12,active: 1.26 µM,–
CCCCN1CCC(COC(=O)c2cc(Cl)c(N)c3c2OCCO3)CC1,–,inactive: 3.23%
CCN(CC)c1ccc2c(Cl)c(Br)c(=O)oc2c1,active: 3.16 µM,–
CCOC(=O)n1c(=O)n(Cc2c(Cl)cccc2Cl)c2ccccc21,–,inactive: 0.672%
CCOC(=O)C1C(=O)NC(SC)=C(C#N)C1c1ccccc1F (stereo not given),"inconclusive [inhibitor, single point]",–
Cc1ccc(N(CC(=O)N2CCCCC2)S(=O)(=O)c2ccc(C)cc2)cc1,"inconclusive [inhibitor, single point]",–
COc1cccc(CNC(=O)CN2C(=O)CC(c3ccccc3)=Nc3ccccc32)c1,active: 35.5 µM,–
Cc1cccc(C2=NN(c3ccccc3)[C@H](CO)[C@H]2c2ccc(F)cc2)c1,"inconclusive [inhibitor, partial curve]",–
CCOC(=O)c1ccc(NC(=O)C(C)NS(=O)(=O)c2ccc(OC)cc2)cc1 (stereo not given),active: 14.1 µM,–
Cc1ccccc1/C=C1\SC(=S)N(/N=C/c2cc([N+](=O)[O-])ccc2O)C1=O,active: 0.398 µM,–
CCOC(=O)N1CCN(C(=S)NC(=O)c2c(-c3c(Cl)cccc3Cl)noc2C)CC1,"inconclusive [inhibitor, single point]",–
COC(=O)c1ccc(C(=O)OC)c(NC(=O)CN2CCN(c3ccccc3OC)CC2)c1,"inconclusive [inhibitor, partial curve]",–
CC1Cc2ccccc2N1c1ncnc2nc[nH]c12 (stereo not given),–,inactive: 2.52%
CCOC(=O)c1nnn(-c2ccc([N+](=O)[O-])cc2[N+](=O)[O-])c1C,"inconclusive [inhibitor, partial curve]",–
CNc1ccccc1C(C)(C)c1cc(-c2ccc(F)cc2)no1,–,inactive: 8.32%
O=c1[nH]c(=S)c2ncn(-c3ccccc3)c2[nH]1,active: 25.1 µM,–
CCOC(=O)N1CCN(c2ccc3nnnn3n2)CC1,–,inactive: 11.4%
Nc1ccc(-c2cnc(-c3ccc(N)cc3)nc2)cc1,"inconclusive [inhibitor, partial curve]",–
O=C(O)CNS(=O)(=O)c1ccc2[nH]c(=O)c(=O)[nH]c2c1,"inconclusive [inhibitor, single point]",–
CC(C)Cc1nnc(NC(=O)CSc2ccccn2)s1,"inconclusive [inhibitor, partial curve]",–
O=C1Nc2ccc(NS(=O)(=O)c3cccs3)c3cccc1c23,active: 15.8 µM,–
CCC(C)c1ccccc1NC(=O)COC(=O)C1=COCCO1 (stereo not given),–,inactive: 4.07%
NC(=O)CC[C@@H](N)C(=O)O,–,inactive: -1.17%
C=CCc1cccc2cc(C(=O)NCc3cccnc3)c(=O)oc12,"inconclusive [inhibitor, single point]",–
CCOc1ccccc1NC(=O)N1CCCC(c2nc(-c3ccc(C)o3)no2)C1 (stereo not given),"inconclusive [inhibitor, single point]",–
